Experiment [1] deals with human PD-1 on PD-1 effector cells (Jurkat T cells, Promega #J1155) (human), Q15116. Put plainly: cell-based or functional assay.
Experiment [2] deals with PD-1 protein constitutively expressed on engineered CHO K1 cells, Q15116. Put plainly: MSD potency assay: competitive binding on CHO K1 cells expressing PD-1, inhibition of PD-L1-mFc binding, ECL; percent of reference material.

For one molecule, Relative Potency (Potency by cell-based bioassay), Relative Potency, Cell-Based Bioassay and Relative Potency, MSD Binding results are on record in patent publication US20230059341A1.

Sequence of human PD-1 on PD-1 effector cells (Jurkat T cells, Promega #J1155) (human), Q15116 (Q15116 25-288): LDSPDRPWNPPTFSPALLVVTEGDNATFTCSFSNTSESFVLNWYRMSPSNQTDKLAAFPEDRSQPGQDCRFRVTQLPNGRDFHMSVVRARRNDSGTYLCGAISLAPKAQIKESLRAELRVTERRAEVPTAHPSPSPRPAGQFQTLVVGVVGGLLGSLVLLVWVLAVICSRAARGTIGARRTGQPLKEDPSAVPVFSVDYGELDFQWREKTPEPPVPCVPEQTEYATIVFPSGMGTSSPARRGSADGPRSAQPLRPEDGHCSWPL

B1: Dostarlimab, base degraded, pH 9.0, 40° C., 1 week (antibody, human IgG4 S228P, kappa)
heavy: EVQLLESGGGLVQPGGSLRLSCAASGFTFSSYDMSWVRQAPGKGLEWVSTISGGGSYTYYQDSVKGRFTISRDNSKNTLYLQMNSLRAEDTAVYYCASPYYAMDYWGQGTTVTVSSASTKGPSVFPLAPCSRSTSESTAALGCLVKDYFPEPVTVSWNSGALTSGVHTFPAVLQSSGLYSLSSVVTVPSSSLGTKTYTCNVDHKPSNTKVDKRV[… human IgG4 Fc with S228P (EU numbers) …]
light: DIQLTQSPSFLSAYVGDRVTITCKASQDVGTAVAWYQQKPGKAPKLLIYWASTLHTGVPSRFSGSGSGTEFTLTISSLQPEDFATYYCQHYSSYPWTFGQGTKLEIKRTVAAPSVFIFPPSDEQLKSGTASVVCLLNNFYPREAKVQWKVDNALQSGNSQESVTEQDSKDSTYSLSSTLTLSKADYEKHKVYACEVTHQGLSSPVTKSFNRGEC
modifications: percent of population: Asn 137 deamidation 1.7; Asp 151/167 isomerization 3.1; percent of population: Asp 62 isomerization 2.3; Asn 84 deamidation 1.3; Asp 147 isomerization 20.8; Met 248 oxidation 7.1; Asp 261/266/276 isomerization 1.4; Asn 311 deamidation 7.1; Met 354 oxidation 1.2; Asn 380 deamidation 27.8; Asn 385 deamidation 27.2; Asn 357/Gln 358 deamidation 1.0; Met 424 oxidation 2.0; Asn …
As for B1, in experiment [1], the Relative Potency (Potency by cell-based bioassay) turned out to be 96% and the Relative Potency, Cell-Based Bioassay was determined as 96%. The Relative Potency, MSD Binding in experiment [2] came to 85%.
